Experimental data reported in PMC12136788.
This is one part of the list.

T1: UNK ZnF1-3 (human, UniProt Q9C0B0 31-174)
T1 sequence: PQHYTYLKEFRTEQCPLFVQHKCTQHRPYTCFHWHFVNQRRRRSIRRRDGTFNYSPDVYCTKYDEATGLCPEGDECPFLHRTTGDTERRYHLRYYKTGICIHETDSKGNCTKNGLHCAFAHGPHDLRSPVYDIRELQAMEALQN

B1: chrX:71482573:71482574:-_ENSMUSG00000031328_ENSMUST00000144429|mus_hu|motif|central (ssRNA)
RNA: GGGAGUUCUACAGUCCGACGAUCCUGCCACUGAGAAAGGGCUCUUAGGGAUGGGAUCCCCUCCAUAAGUGACAUUGACGCCGGCUGGACCCUGCUGGACAGGCGUGUACUUGACUGUGUAGGUGUUGUCAUGGUGGUCGAUGACAACAGAGGAUUGAGCAUCA
B2: 7358052_7359150_1645_CDS_ENSMUSG00000024969_ENSMUST00000032557|mouse|control|control (ssRNA)
RNA: GGGAGUUCUACAGUCCGACGAUCUUCCAGCUCAGAGCUCUUGUAGCCAAGGAGCAGAUAGGUAGCCAUCACUUCGUUGUACCUCUGGCCUACCAGCGAGUCCUGGAUCUCUUCCCGUGUGUAACCCAUUGACACCAUCAACUCCAACAGAGGAUUGAGCAUCA
B3: chr11:87793471:87793472:-_ENSMUSG00000020483_ENSMUST00000020775|mus_mus|mus_mus_mus_hu_False|48_88 (ssRNA)
RNA: GGGAGUUCUACAGUCCGACGAUCUGGACUUGAAAAUAAAAGAAUAAGCUAGAUUUCCCACCCCCCCACAUUGUCAACCCUACACGAGUUCUGAAUGGGCGACUCAUGAAAAUCAGCAGCUCAAACGGCAAUGACCACCCCACCCAACAGAGGAUUGAGCAUCA
B4: chr16:45382771:45382772:-_ENSMUSG00000022661_ENSMUST00000163230|mus_mus|mus_mus_mus_hu_True|1_68 (ssRNA)
RNA: GGGAGUUCUACAGUCCGACGAUCCUGGGUCAUGUUAUAAGACAAAUGGACAGGGAGGGCAUGCUUCUGUAAAGAUGUGAGCUAUUGUCUAAGACUAACAAUAUUUAUCUAGCUAUAAAAAUAAGUUAAAUGAAUAAACAUUACCAACAGAGGAUUGAGCAUCA
B5: 76126223_76214478_1189_CDS_ENSMUSG00000034098_ENSMUST00000038364|mouse|control|control (ssRNA)
RNA: GGGAGUUCUACAGUCCGACGAUCCUUCCUAGAUAUGUCAUCACUGUUGGGAUUCUCAUUUUCUUGUGUAAUAUACUUUUGAUUUUGUAAGUCUAAAAGCAUACUUUUCAUCUUGCUGUAUUCAAUGGCCAUGCAGUUGUCCCCCAACAGAGGAUUGAGCAUCA
B6: chr7:118218646:118218647:-_ENSMUSG00000005610_ENSMUST00000162415|mus_mus|FALSE|FALSE (ssRNA)
RNA: GGGAGUUCUACAGUCCGACGAUCUUCCUGUUUGAGUAAACUGAUUAAAGAGCUUGCUUUUUCUUUAUCUUCAUCACUUCUAUCAAGUGACAGGAUGAUCACUUUGCUUAGCAUCUCAGGAAGAAAGUGUUUUGGAGCUCUCAUCAACAGAGGAUUGAGCAUCA
B7: chr11:69480760:69480761:-_ENSMUSG00000059796_ENSMUST00000163666|mus_mus|motif|central (ssRNA)
RNA: GGGAGUUCUACAGUCCGACGAUCUGGGGGGGGAAGGAGACGGCGCCUGGGGCAGAGCCUACCCCAAAGAAAAGGGUGUCGGAAAUGUUCACGGUUCCUUCUUUUUGCCUCAAAAAGUGACAUUUAUUCAUAGAGAAAAAAAACCAACAGAGGAUUGAGCAUCA
B8: 55424567_55428146_759_CDS_ENSMUSG00000029778_ENSMUST00000070756|mouse|control|control (ssRNA)
RNA: GGGAGUUCUACAGUCCGACGAUCAGCAUCGAAGUAAUGGGGGAAGGGCUCCGACCAGCCAUCCUCAGUGCAGUUCCGGCCCACGACCCCCAUGUCUGUGAUCUCCAAGGAAUUACUAUCAGCAAAGCCAGAAUCCCCUAUGGUCAACAGAGGAUUGAGCAUCA
B9: chr1:121469438:121469439:-_ENSMUSG00000026383_ENSMUST00000052404|mus_hu|FALSE|FALSE (ssRNA)
RNA: GGGAGUUCUACAGUCCGACGAUCCUGGCUGUUUAUGUUAACAUCGAUGUUGGAUCGAGGGGACAGCAAAGGACUGUUCUCCAUCUCAAGCUGUUUGAGCUUCUCUGAGGUGUCUUUUAAUGUCUCAUAUUCAACUUCAGGUUCCAACAGAGGAUUGAGCAUCA
B10: chr16:32084594:32084595:-_ENSMUSG00000023791_ENSMUST00000096109|perfect_dup|FALSE|FALSE (ssRNA)
RNA: GGGAGUUCUACAGUCCGACGAUCAGAAAACACUUAGCUGUACAAAACUUACAGGGAAAAGUGGCCAUAUUUGAAAACAGCUAAAAGGAUCAAAGUAGAACACAGAAUCGUAAUGAGCAGCGUCACAGAACACACUAAAGAGGUCAACAGAGGAUUGAGCAUCA
B11: chr2:39052001:39052002:-_ENSMUSG00000026753_ENSMUST00000028087|mus_mus|FALSE|FALSE (ssRNA)
RNA: GGGAGUUCUACAGUCCGACGAUCCAACUGGUAUCAAAUCAACACAUCAAUGCUACAAGUAUUAAAUGUUUUUCUAAUACUAUAGAAAUAAAAACAUUAAUAUGGCAGUUAUGUUCUUUAGGCACAAUUUAGUGAUUUUUUUAACAACAGAGGAUUGAGCAUCA
B12: chr6:75965845:75965846:-_ENSG00000112697_ENST00000230461|hu_mus|FALSE|FALSE (ssRNA)
RNA: GGGAGUUCUACAGUCCGACGAUCAUUUGGUUUCAGAAUAUAAAAUUAAAUGGUGAUGUCAGCAGUGUUACUACUGUUUCUAUAUUUAUGAUUAAUUACUAGCAGUACAACUCCCAGAAGGAAAGAGAUGGAUCCAAUAGUGAUCAACAGAGGAUUGAGCAUCA
B13: chr18:34657717:34657718:-_ENSMUSG00000036501_ENSMUST00000040506|mus_mus|motif|central (ssRNA)
RNA: GGGAGUUCUACAGUCCGACGAUCUCAUUGUCUGGAUGUCCUCCCUGCUGCAGCUCAUCAAGUGGAAUUCCAAAUAUUUUGCGGGCAAGAUCGGAGUUGCAGUUACUCAAGGAAGGGGAGGAGCUCUUCCUCAUAGCUUUUUUGCAACAGAGGAUUGAGCAUCA
B14: chr16:36052476:36052477:-_ENSMUSG00000003955_ENSMUST00000004057|mus_hu|FALSE|FALSE (ssRNA)
RNA: GGGAGUUCUACAGUCCGACGAUCUUCAAAUCAGAGCUUCUGGUAAGCCUUAGAGAUGAGGAAACAUCUCUUUCACAUAACCUAAAACAGCUUCUCAUAAUUGCACUGGCAAACAGUUCUUAUAAGAUACUUAAAUCUUUGCGACAACAGAGGAUUGAGCAUCA
B15: chr6:42629286:42629287:-_ENSMUSG00000036667_ENSMUST00000045054|mus_hu|FALSE|FALSE (ssRNA)
RNA: GGGAGUUCUACAGUCCGACGAUCGAAUAAUACCUUAUGGCCAGUCACAACCACCCGGCCCCGGCCAUAGCGGGCAGCCGCUAUAACACAGCCAUGGUAGGAAUCUAACCCUAGAGGAAAGGCUAAAGCCCCAUGCACUAGCAGCAACAGAGGAUUGAGCAUCA
B16: 82409221_82409341_1242_CDS_ENSG00000117114_ENST00000335786|human|control|control (ssRNA)
RNA: GGGAGUUCUACAGUCCGACGAUCAUACUGGUUGGGGAAGGGAACAUCUACAUAUUCUCCUCGGUUUAAUCGGGUAUUAUAAAUGUAAUCAAUUGAGUUCUUGCCUGUUUCACUUUCAUUGUCUUGAUAAACUGACCUAACCACCAACAGAGGAUUGAGCAUCA
B17: chr14:21838049:21838050:-_ENSG00000092201_ENST00000216297|hu_hu|motif|central (ssRNA)
RNA: GGGAGUUCUACAGUCCGACGAUCGUUGAGCUCCCCAUCCUCCUUUACAGCGAUGGUAUAUGCCACAACUGCACUGAUAUCGGUUUUGUCAAAGCCUUCUUUGUUGAGGCAGUCAUUCCAGCUCUUCAUGAACUCUCCAGGGAACAACAGAGGAUUGAGCAUCA
B18: chr14:66974463:66974464:+_ENSMUSG00000022044_ENSMUST00000074523|mus_hu|mus_mus_mus_hu_False|8_58 (ssRNA)
RNA: GGGAGUUCUACAGUCCGACGAUCUUGUAGGACGACUUAUUCAGGGGAUCGGCCAGGAAGCAGGAGCAGAACAAGGACACUAGUGGGAGCUCCUUCAUCUUCUCUUUGUAGGCAGCAAGGGUCAUGUUGGCUGGAAUUGGUGGCCAACAGAGGAUUGAGCAUCA
B19: chr1:115268999:115269000:-_ENSG00000009307_ENST00000339438|hu_hu|FALSE|FALSE (ssRNA)
RNA: GGGAGUUCUACAGUCCGACGAUCUAAAAGUCGCACACAAGUUGCAACCUGCUGUCCAGGCCUCUGUUUGUCACUAAUACUAAAUUCAACCUUAUCUCCUAUUUGAGGAGAAGUAGAUCCUUCCACAUCCUUGGCUUGAAAAGCCAACAGAGGAUUGAGCAUCA
B20: chr14:72190480:72190481:+_ENSG00000197555_ENST00000381232|hu_mus|motif|central (ssRNA)
RNA: GGGAGUUCUACAGUCCGACGAUCAAAUCCCACGGAGUUAAUGGUUCCUUCUGGCUUUUUCCAUCCAAUCAGAUAUUUGCGGGUGGCGCCCUGGCGAGGGUAGAAAGUCCUAGGUCCAGAGGAGGAUGAGGAAGAAGAGGAAAACAACAGAGGAUUGAGCAUCA
B21: 163114893_163115013_3002_3pUTR_ENSG00000143248_ENST00000313961|human|control|control (ssRNA)
RNA: GGGAGUUCUACAGUCCGACGAUCAAAAGCCCUUCUUAUUUUCCGCUGAGAGGUCUACCCACUUUCAUAGGGUGUCCAGUCAAUUUGUGAGUACAGUCCACUGGAGUCUUCAUAACAUCAACCCUCUAGGUGAGAUCUGUAAUACAACAGAGGAUUGAGCAUCA
B22: chr10:70928335:70928336:+_ENSG00000122958_ENST00000263559|hu_hu|motif|central (ssRNA)
RNA: GGGAGUUCUACAGUCCGACGAUCCCAUAAAAUUAUCUCCUGCUGUUUGAAGUACCUCCGGUCUUCCUCAUCAACAAGCACGGAAUUCAAAAAGUACCUUACUGAAAAUUUUUUGUUCACAUCUCUCAUUGUUGGAGUUGGGUCCAACAGAGGAUUGAGCAUCA

target: T1, UNK ZnF1-3; test: nsRBNS (natural sequence RNA bind-n-seq); RBNS binding buffer (assumed for nsRBNS): 25 mM Tris pH 7.5, 150 mM KCl, 3 mM MgCl2, 0.01% Triton X-100, 500 ug/ml BSA, 20 U/ml SUPERase-In, 4 C; UNK is unkempt and MSI1 is Musashi-1; names of the RNAs are library labels; protein concentration not given here; high values mean tight binding

Binder | binding signal
B1 | 0.851 enrichment R
B2 | 1.05 enrichment R
B3 | 1.8 enrichment R
B4 | 2.24 enrichment R
B5 | 0.51 enrichment R
B6 | 0.567 enrichment R
B7 | 1.29 enrichment R
B8 | 0.94 enrichment R
B9 | 0.716 enrichment R
B10 | 1.72 enrichment R
B11 | 0.623 enrichment R
B12 | 1.58 enrichment R
B13 | 0.887 enrichment R
B14 | 0.611 enrichment R
B15 | 1.35 enrichment R
B16 | 0.83 enrichment R
B17 | 0.939 enrichment R
B18 | 2.11 enrichment R
B19 | 0.823 enrichment R
B20 | 2.06 enrichment R
B21 | 0.888 enrichment R
B22 | 0.98 enrichment R
